Some of the results follow. The source does not settle which construct or isoform was used.
Molecular target: GST-SBP-ILF3 (Homo sapiens) (UniProt Q12906)
Experiment: targeted RNA Bind-n-Seq
Conditions: RBNS binding buffer: 25 mM Tris pH 7.5, 150 mM KCl, 3 mM MgCl2, 0.1% Tween, 0.5 mg/mL BSA, 1 mM DTT; 27 nM protein, 750 pM RNA pool; temperature not stated; high values mean tight binding; sequences stand for … in GGGUAAAAGCGAGGUGAA…CGGGACAAGUAUUAUGGG

| Sequence | binding signal (log2 fold change) |
| --- | --- |
| UUUUUUUUUUGAGAGGGAACCCCUCUCCUA [tttttgagapaired] | 0.00509 |
| GUUGUGUGUGUUGGAUCCUAACACACACAG [gtspaired] | -0.533 |
| UUUUUUUUUUGAGACUGAACCAGUCUCCUG [tttttgagapaired] | 0.0517 |
| GUGUGGUGUGUUGGUGUCUAACACAUCACA [gtspaired] | -0.379 |
| UUUUUUUUUUGAGACCGGCACGGUCUCCUA [tttttgagapaired] | 0.147 |
| UUUUUUUUUUGAGACGGAGUCUGUCUCCAG [tttttgagapaired] | 0.677 |
| UUUUUUUUUUGAGAGGGCUACCCUCUCCGG [tttttgagapaired] | 0.526 |
| GUUGGUGGUGUUGGUGCCUAACACCGCCGA [gtspaired] | -0.121 |
| UUUUUUUUUUGAGACGGAUGCCGUUUCCUG [tttttgagapaired] | 0.526 |
| UUUUUUUUUUGAGAUCGAGGCGAUUUCCGG [tttttgagapaired] | 0.486 |
| UUUUUUUUUUGAGAGGGAGCCCCUCUCCUG [tttttgagapaired] | 0.703 |
| UUUUUUUUUUGAGACUGACACAGUUUCCGG [tttttgagapaired] | 0.322 |
| GUGUGGUGUGUUGGCGCCUAACACAUCACA [gtspaired] | -0.372 |
| GUGUGUGGUGUUGGUCCCUAACACCGCACG [gtspaired] | -0.668 |
| UUUUUUUUUUGAGAGCGGUACGUUCUCCUG [tttttgagapaired] | 0.505 |
| UUUUUUUUUUGAGACUGAGACAGUCUCCAG [tttttgagapaired] | 0.267 |
| GUGGUGUGUGUUGGUGUCUAACACAUACCA [gtspaired] | -0.592 |
| UUUUUUUUUUGAGACGGUUGCCGUCUUCUG [tttttgagapaired] | 0.648 |
| UUUUUUUUUUGAGAACGAUCCGUUCUCCAG [tttttgagapaired] | 0.0997 |
| UUUUUUUUUUGAGAGCGGAUCGUUCUCCUA [tttttgagapaired] | 0.103 |
| UUUUUUUUUUGAGAGGGUAUCCUUCUCCUG [tttttgagapaired] | 0.239 |
| GUGUGUGGUGUUGGUGUCUAACACCGCGCA [gtspaired] | -0.475 |
| GUGGUUGGUGUUGGAACCUAACACCGACCG [gtspaired] | -0.624 |
| UUUUUUUUUUGAGAGGGAGUCCUUCUCCGG [tttttgagapaired] | 0.595 |
| GUGUGGUGUGUUGGCUUCUAACACACCGCA [gtspaired] | -0.405 |
| GGUGUGUGUGUUGGCUCCUAACACAUACGC [gtspaired] | -0.727 |

| Sequence | binding signal (log2 fold change) |
| --- | --- |
| UUCUUCUCUCCUCCUCGGGAGGGGGGAAGA [ctspaired] | -0.288 |
| UUUUUUUUUUGAGAUGGAAUCCAUCUUCUA [tttttgagapaired] | -0.308 |
| UUUUUUUUUUGAGACGGAUUCCGUCUCCAG [tttttgagapaired] | 0.303 |
| UUUUUUUUUUGAGAGGGGGUCCCUCUCCUG [tttttgagapaired] | 0.841 |
| GUGUGUGGUGUUGGCUCCUAACACCGCACG [gtspaired] | -0.64 |
| UUUUUUUUUUGAGACUGUAGCAGUCUCCAG [tttttgagapaired] | 0.559 |
| UUUUUUUUUUGAGAGCGUAACGCUCUCCGG [tttttgagapaired] | 0.156 |
| UUUUUUUUUUGAGACGGGGUCUGUCUUCUG [tttttgagapaired] | 0.884 |
| GUUGUGUGUGUUGGAACCUAACACACGCAG [gtspaired] | -0.586 |
| GUUGGUGGUGUUGGUCCCUAACACCGCCGA [gtspaired] | -0.369 |
| UUUUUUUUUUGAGACGGGCUCCGUCUUCUA [tttttgagapaired] | 0.521 |
| UUUUUUUUUUGAGAGCGGAUCGUUCUCCGG [tttttgagapaired] | 0.26 |
| GUGGUUGGUGUUGGAUUCUAACACCAGCCG [gtspaired] | -1.16 |
| UUUUUUUUUUGAGAUCGUAACGAUCUUCUA [tttttgagapaired] | -0.0225 |
| GUUGUGUGUGUUGGUAUCUAACACACGCGA [gtspaired] | -0.667 |
| GUGGUUGGUGUUGGUCUCUAACACCAAUCA [gtspaired] | -0.665 |
| UUUUUUUUUUGAGACCGCUACGGUCUUCUG [tttttgagapaired] | 0.375 |
| UUUUUUUUUUGAGACGGGAGCUGUCUCCGG [tttttgagapaired] | 0.815 |
| UUUUUUUUUUGAGACUGACUCAGUCUCCAG [tttttgagapaired] | 0.0847 |
| UUUUUUUUUUGAGAUGGAAGCUAUCUCCUA [tttttgagapaired] | 0.0438 |
| GGUGGUUGUGUUGGAUCCUAACACAGCUAC [gtspaired] | -0.637 |
| UUUUUUUUUUGAGACCGAAACGGUUUUCUA [tttttgagapaired] | 0.143 |
| UUUUUUUUUUGAGAGCGAGCCGCUCUCCAG [tttttgagapaired] | -0.0152 |
| UUUUUUUUUUGAGAGCGUAUCGCUCUCCUG [tttttgagapaired] | 0.0774 |
| UUUUUUUUUUGAGAUCGACACGAUCUCCUG [tttttgagapaired] | 0.249 |
| UUUUUUUUUUGAGAUGGAGUCCAUUUCCUA [tttttgagapaired] | 0.099 |

| Sequence | binding signal (log2 fold change) |
| --- | --- |
| GUGUGUUGUGUUGGCUUCUAACACAACGCG [gtspaired] | -0.663 |
| UUUUUUUUUUGAGAUGGUGUCCAUUUCCGG [tttttgagapaired] | 1.08 |
| GUUGUGUGUGUUGGUGUCUAACACACACGA [gtspaired] | -0.507 |
| GUGUGUGGUGUUGGCCUCUAACACCGCGCG [gtspaired] | -0.712 |
| UUUUUUUUUUGAGACGGAUGCCGUCUCCUG [tttttgagapaired] | 0.575 |
| UUUUUUUUUUGAGACUGAGACAGUCUCCUG [tttttgagapaired] | 0.425 |
| GUUGUGUGUGUUGGCGCCUAACACACGCGA [gtspaired] | -0.796 |
| UUUUUUUUUUGAGAUCGUAGCGAUCUCCAG [tttttgagapaired] | 0.203 |
| UUUUUUUUUUGAGAGCGGCACGUUCUCCAG [tttttgagapaired] | 0.481 |
| UUUUUUUUUUGAGAGGGCGACCCUCUUCUA [tttttgagapaired] | 0.446 |
| UUUUUUUUUUGAGACGGUAACCGUCUUCUA [tttttgagapaired] | 0.186 |
| GUUGUGUGUGUUGGCCUCUAACACACGCAG [gtspaired] | -0.779 |
| GGUGGUGGUGUUGGAGCCUAACACCAUCGC [gtspaired] | -0.722 |
| GUGUUGUGUGUUGGCGCCUAACACACAACG [gtspaired] | -0.255 |
| UUUUUUUUUUGAGAAGGCUCCCUUCUCCAG [tttttgagapaired] | 0.0853 |
| GUGUUGUGUGUUGGACCCUAACACACAGCG [gtspaired] | -0.232 |
| UUUUUUUUUUGAGAGCGGCGCGCUCUUCUA [tttttgagapaired] | 0.481 |
| UUUUUUUUUUGAGACUGCGGCAGUCUCCGG [tttttgagapaired] | 0.558 |
| UUUUUUUUUUGAGACUGGCACAGUCUCCUA [tttttgagapaired] | 0.526 |
| GUGUGUGGUGUUGGCUCCUAACACCACGCG [gtspaired] | -0.169 |
| UUUUUUUUUUGAGAGGGACACCCUCUCCAG [tttttgagapaired] | 0.402 |
| UUUUUUUUUUGAGACCGAUUCGGUCUCCUA [tttttgagapaired] | -0.0663 |
| UUUUUUUUUUGAGACGGCGGCCGUCUUCUG [tttttgagapaired] | 0.975 |
| UUUUUUUUUUGAGAUGGCAGCCAUCUCCUG [tttttgagapaired] | 0.68 |
| UUUUUUUUUUGAGAGCGACACGUUCUCCUG [tttttgagapaired] | 0.344 |
| UUUUUUUUUUGAGACUGCGGCAGUUUCCUA [tttttgagapaired] | 0.649 |

| Sequence | binding signal (log2 fold change) |
| --- | --- |
| GGUUGUGGUGUUGGUUCCUAACACCGCAGC [gtspaired] | -0.753 |
| UUUUUUUUUUGAGAGGGUAACCCUCUUCUG [tttttgagapaired] | 0.222 |
| UUUUUUUUUUGAGAGGGUACCCCUCUCCUA [tttttgagapaired] | 0.222 |
| UUUUUUUUUUGAGACUGCAUCAGUCUUCUA [tttttgagapaired] | -0.0925 |
| UUCCUCUCUCCUCCACGGGAGGGGGGAGGA [ctspaired] | -0.362 |
| GUGGUUGGUGUUGGCGUCUAACACCAGCCA [gtspaired] | -0.455 |
| GGUGGUGGUGUUGGUGCCUAACACCAUCGC [gtspaired] | -0.76 |
| GGUUGUUGUGUUGGUCUCUAACACAGCAAC [gtspaired] | -0.798 |
| UUUUUUUUUUGAGAUGGUAUCCAUCUUCUA [tttttgagapaired] | -0.0531 |
| GGUGGUUGUGUUGGCGCCUAACACAGCCGC [gtspaired] | -0.475 |
| UUUUUUUUUUGAGAGGGACUCCCUCUUCUA [tttttgagapaired] | 0.199 |
| UUUUUUUUUUGAGACGGUCUCCGUCUCCUG [tttttgagapaired] | 0.73 |
| GUUGGUGGUGUUGGCAUCUAACACCGCCAG [gtspaired] | -0.566 |
| UUUUUUUUUUGAGAUCGGUACGAUCUCCAG [tttttgagapaired] | 0.431 |
| UUUUUUUUUUGAGAUGGUGACUAUCUCCUA [tttttgagapaired] | 0.357 |
| UUUUUUUUUUGAGAUCGAAACGAUUUCCUA [tttttgagapaired] | -0.11 |
| UUUUUUUUUUGAGAGUGUAGCAUUCUCCAG [tttttgagapaired] | 0.174 |
| UUUUUUUUUUGAGAUCGGUACGAUCUCCGG [tttttgagapaired] | 0.566 |
| GUGGUGUGUGUUGGAGCCUAACACACACUA [gtspaired] | -0.416 |
| UUUUUUUUUUGAGAGCGUAGCGCUCUCCGG [tttttgagapaired] | 0.0541 |
| UUUUUUUUUUGAGACUGAAUCAGUUUUCUA [tttttgagapaired] | -0.477 |
| UUCCUUCUUCCUCCUGGGGAGGGAGAGGGA [ctspaired] | -0.464 |
| UUUUUUUUUUGAGACCGGGCCGGUCUUCUG [tttttgagapaired] | 0.747 |
| UUUUUUUUUUGAGAUGGUGUCCGUCUCCUA [tttttgagapaired] | 0.82 |
| UUUUUUUUUUGAGAUCGAAUCGAUCUCCGG [tttttgagapaired] | 0.178 |
